# Laboratory results reported in the supplement of paper PMC8512760.
# Counter-ions that a name gives are not always drawn. This is one part of the list. Repeats are few or missing, and single values can be far off.
# Assays:
# Test in all cases: cell viability relative to vehicle (% of vehicle); basal-like triple-negative breast cancer lines; higher = less cytotoxic
# Settings in all cases: 10 µM; 72 h
# [1] = test system: HCC-1143
# [2] = test system: HCC-1187
# [3] = test system: MDA-468
# [4] = test system: SUM-149
# 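Note: stably firefly luciferase-GFP labeled cells in 96-well plates, viability read as luciferase photon flux after d-luciferin addition, treated wells normalized to vehicle wells, single-dose high-throughput screen.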
structure (smiles),measurement,setting,value
Cc1c(N)nc(C(CC(N)=O)NCC(N)C(N)=O)nc1C(=O)NC(C(=O)NC(C)C(O)C(C)C(=O)NC(C(=O)NCCc1nc(-c2nc(C(=O)NCCC[S+](C)C)cs2)cs1)C(C)O)C(O[C@@H]1O[C@@H](CO)[C@@H](O)[C@H](O)[C@@H]1O[C@H]1O[C@H](CO)[C@@H](O)[C@H](OC(N)=O)[C@@H]1O)c1cnc[nH]1 (some centres undefined) [Bleomycin Sulfate],cell viability,[1],124
same,cell viability,[2],51.1
same,cell viability,[3],65.1
same,cell viability,[4],72.2
CCC1=C[C@H]2CN3CCc4c([nH]c5ccccc45)[C@@](C(=O)OC)(C2)[C@@H]13 [Catharanthine],cell viability,[1],82.9
same,cell viability,[2],79.4
same,cell viability,[3],121
same,cell viability,[4],103
CN1C2CCC1CC(OC(=O)C(CO)c1ccccc1)C2 (centres undefined) [Hyoscyamine],cell viability,[1],79.6
same,cell viability,[2],87
same,cell viability,[3],93.6
same,cell viability,[4],121
O.O=P1(N(CCCl)CCCl)NCCCO1 (centres undefined) [Cyclophosphamide monohydrate],cell viability,[1],101
same,cell viability,[2],96.1
same,cell viability,[3],97.5
same,cell viability,[4],118
Cl.Cn1c(CCCC(=O)O)nc2cc(N(CCCl)CCCl)ccc21 [Bendamustine HCl],cell viability,[1],91.9
same,cell viability,[2],88.4
same,cell viability,[3],86.3
same,cell viability,[4],102
CC1C=CC=CCCC=CC=CC=CC=CC(OC2OC(C)C(O)C(N)C2O)CC2OC(O)(CC(O)C(O)CCC(O)CC(O)CC(O)CC(=O)OC(C)C(C)C1O)CC(O)C2C(=O)O (centres undefined) [Nystatin (Fungicidin)],cell viability,[1],77.5
same,cell viability,[2],116
same,cell viability,[3],127
same,cell viability,[4],103
